Experimental data taken from patent US9138416B2, “Sustained-release nanoparticle compositions and methods using the same” (Board of Regents of the University of Nebraska by and …, priority 2004, dated 2015).

Tested on: vascular smooth muscle cells
Experiment: Anti-proliferative effect, MTS assay
Type: cell-based, Human
Conditions: 490 nm
Description: Proliferation was measured using an MTS assay.
To monitor cell proliferation, cells were seeded at a 5,000 cell per well density in 96-well plates and allowed to attach for 24 hours. Different doses of rapamycin (1 ng/mL to 1,000 ng/mL) either loaded in nanoparticles or in solution (rapamycin dissolved in methanol was diluted in the medium) were used. The concentration of methanol in the medium was kept below 0.1% so that it had no effect on cell proliferation. Cells treated with empty nanoparticles or medium served as respective controls for drug-loaded nanoparticles or drug in solution. The medium in the wells was changed on day two and on every alternate day thereafter with no further addition of drug. Anti-proliferative activity of the drug was monitored for eight days of the study using an MTS assay ([…] 96® AQueous, Promega, Madison, Wis.). MTS assay reagent (20 μL/well) was added to each well and the plates were incubated for 3 hours at 37° C. in a cell culture incubator. Color intensity was measured at 490 nm using a microplate reader (Bio-Tek Instrument, Winooski, Vt.).

CO[C@H]1C[C@@H]2CC[C@@H](C)[C@@](O)(O2)C(=O)C(=O)N2CCCC[C@H]2C(=O)O[C@H]([C@H](C)C[C@@H]2CC[C@@H](O)[C@H](OC)C2)CC(=O)[C@H](C)/C=C(\C)[C@@H](O)[C@@H](OC)C(=O)[C@H](C)C[C@H](C)/C=C/C=C/C=C/1C [Rapamycin in Solution, rapamycin]
Cell Viability (Absorbance ± SEM) (Day 2, rapamycin 1000 ng/mL): 0.196 ± 0.011
Cell Viability (Absorbance ± SEM) (Day 5, rapamycin 1000 ng/mL): 0.354 ± 0.015
Cell Viability (Absorbance ± SEM) (Day 8, rapamycin 100 ng/mL): 0.692 ± 0.040
Cell Viability (Absorbance ± SEM) (Day 8, rapamycin 1000 ng/mL): 0.693 ± 0.058
